Reference: article PMC11995724, “Antibiotic target discovery by integrated phenotypic and activity-based profiling of electrophilic fragments” (Cell chemical biology, 2025)
Screen size: about 3,200 compounds; about 75 (2%) showed an effect of 50% or more. This is one part of the list.

tested on: T1, S. aureus MSSA476; set-up: species or system S. aureus MSSA476 (TSB) or V. cholerae SAD30 (LB); 384-well bacterial growth screen at 25 uM, OD600 relative to DMSO control; details: relative growth, OD600, TSB; 25 µM; inhibitor
T1 construct: MSSA476

Row | Structure (SMILES) | % of control remaining [%]
1 | C=CC(=O)NCc1ccc(-n2ccnc2)cc1 [1-M18, N-{[4-(1H-imidazol-1-yl)phenyl]methyl}prop-2-enamide] | 130.11
2 | CC(Cl)C(=O)c1ccc2c(c1)CCC2 (stereo not shown) [10-M08, 2-chloro-1-(2,3-dihydro-1H-inden-5-yl)propan-1-one] | 111.875
3 | C=CC(=O)Nc1c(C)cnn1CC1CC1 [1-M19, N-[1-(cyclopropylmethyl)-4-methyl-1H-pyrazol-5-yl]prop-2-enamide] | 105.846
4 | CCCn1c(C)cc(C=C(C#N)C(=O)Nc2cccc(C#N)c2)c1C [8-N19, 2-cyano-N-(3-cyanophenyl)-3-(2,5-dimethyl-1-propyl-1H-pyrrol-3-yl)prop-2-enamide] | 137.759
5 | C[C@H]1CN(C(=O)CCl)Cc2cccn21 [5-B03, 2-chloro-1-[(4S)-4-methyl-1H,2H,3H,4H-pyrrolo[1,2-a]pyrazin-2-yl]ethan-1-one] | 90.3461
6 | CCc1ccc(C=C(C#N)C(=O)Nc2cc(C)c(Cl)cc2OC)cc1 [8-G11, N-(4-chloro-2-methoxy-5-methylphenyl)-2-cyano-3-(4-ethylphenyl)prop-2-enamide] | 118.174
7 | Cc1cccc(N(Cc2c(C3CC3)cnn2C)C(=O)CCl)c1 [5-D07, 2-chloro-N-[(4-cyclopropyl-1-methyl-1H-pyrazol-5-yl)methyl]-N-(3-methylphenyl)acetamide] | 88.5246
8 | CN(C)C(=O)c1cc2n(n1)CC1(CCN(C(=O)CCl)CC1)OC2 [5-K11, 1-(2-chloroacetyl)-N,N-dimethyl-4',7'-dihydrospiro[piperidine-4,6'-pyrazolo[3,2-c][1,4]oxazine]-2'-carboxamide] | 104.554
9 | CC(Cl)C(=O)N1CC(=O)Nc2cc(C(F)(F)F)ccc21 (stereo not shown) [4-N20, 4-(2-chloropropanoyl)-7-(trifluoromethyl)-1,2,3,4-tetrahydroquinoxalin-2-one] | 118.533
10 | C=CC(=O)Nc1ccc(C(=O)NC2CCN(C(C)C)C2=O)cc1 (stereo not shown) [3-C10, N-[2-oxo-1-(propan-2-yl)pyrrolidin-3-yl]-4-(prop-2-enamido)benzamide] | 117.719
11 | C=CC(=O)NC1CCOCC1 [2-G17, N-(oxan-4-yl)prop-2-enamide] | 112.794
12 | C=CC(=O)N1CCCC(C2CCN(C(=O)c3cc(C)nn3C)CC2)C1 (stereo not shown) [1-P22, 1-[1'-(1,3-dimethyl-1H-pyrazole-5-carbonyl)-[3,4'-bipiperidin]-1-yl]prop-2-en-1-one] | 95.6484
13 | CC(Cl)C(=O)Nc1cc(F)ccc1F (stereo not shown) [6-A09, 2-chloro-N-(2,5-difluorophenyl)propanamide] | 81.6098
14 | COC1CCC(N(Cc2cc(C)oc2C)C(=O)CCl)CC1 (stereo not shown) [5-O20, 2-chloro-N-[(2,5-dimethylfuran-3-yl)methyl]-N-(4-methoxycyclohexyl)acetamide] | 91.0747
15 | CCc1ccc(NC(=O)C(C#N)=Cc2cccnc2)cc1 [8-G04, 2-cyano-N-(4-ethylphenyl)-3-(pyridin-3-yl)prop-2-enamide] | 118.838
16 | C=CC(=O)N(C)CC(=O)N1CCCC1c1nc(C)no1 (stereo not shown) [2-M04, N-methyl-N-{2-[2-(3-methyl-1,2,4-oxadiazol-5-yl)pyrrolidin-1-yl]-2-oxoethyl}prop-2-enamide] | 103.394
17 | C=CC(=O)N(C)Cc1ccncc1 [1-N21, N-methyl-N-[(pyridin-4-yl)methyl]prop-2-enamide] | 139.253
18 | Cc1noc(C2CN(C(=O)C(C)Cl)C2)n1 (stereo not shown) [7-G04, 2-chloro-1-[3-(3-methyl-1,2,4-oxadiazol-5-yl)azetidin-1-yl]propan-1-one] | 74.0973
19 | O=C(CCl)Cc1c(F)cccc1Cl [10-D20, 1-chloro-3-(2-chloro-6-fluorophenyl)propan-2-one] | 108.438
20 | Cc1ccccc1NC(=O)C(C#N)=Cc1cccc2ccccc12 [8-H09, 2-cyano-N-(2-methylphenyl)-3-(naphthalen-1-yl)prop-2-enamide] | 106.556
21 | O=C(CCl)N(Cc1ccc(F)cc1)C1CCCCC1 [4-I13, 2-chloro-N-cyclohexyl-N-[(4-fluorophenyl)methyl]acetamide] | 87.6608
22 | C=CC(=O)NCC(OC)C1CCOC1 (stereo not shown) [3-L19, N-[2-methoxy-2-(oxolan-3-yl)ethyl]prop-2-enamide] | 86.0253
23 | CC(=O)NCc1ccc(C(=O)CCl)o1 [10-I10, N-{[5-(2-chloroacetyl)furan-2-yl]methyl}acetamide] | 129.375

Row | Structure (SMILES) | % of control remaining [%]
24 | O=C(CCl)Nc1ccc(Cl)cc1[N+](=O)[O-] [5-N08, 2-chloro-N-(4-chloro-2-nitrophenyl)acetamide] | 141.712
25 | Cc1ccc(C2CS(=O)(=O)CCN2C(=O)C(C)Cl)o1 (stereo not shown) [6-D19, 4-(2-chloropropanoyl)-3-(5-methylfuran-2-yl)-1lambda6-thiomorpholine-1,1-dione] | 102.439
26 | O=C(CCl)c1cnc(N2CCCCC2)s1 [10-L17, 2-chloro-1-[2-(piperidin-1-yl)-1,3-thiazol-5-yl]ethan-1-one] | 99.375
27 | Cc1nnnn1-c1ccc(F)c(NC(=O)CCl)c1 [6-E13, 2-chloro-N-[2-fluoro-5-(5-methyl-1H-1,2,3,4-tetrazol-1-yl)phenyl]acetamide] | 106.878
28 | CC1(C)C(=O)Nc2ccc(C(=O)CCl)cc21 [10-N21, 5-(2-chloroacetyl)-3,3-dimethyl-2,3-dihydro-1H-indol-2-one] | 40.3125
29 | C=CC(=O)NC(CO)c1nc(C)no1 (stereo not shown) [1-C05, N-[2-hydroxy-1-(3-methyl-1,2,4-oxadiazol-5-yl)ethyl]prop-2-enamide] | 95.6484
30 | CC(=O)Nc1ccc(C=C(C#N)C(=O)Nc2c(C)cc(C)cc2C)cc1 [8-M13, 2-cyano-3-(4-acetamidophenyl)-N-(2,4,6-trimethylphenyl)prop-2-enamide] | 112.863
31 | CC(Cl)C(=O)Nc1cccc(CSc2ccccn2)c1 (stereo not shown) [5-B18, 2-chloro-N-{3-[(pyridin-2-ylsulfanyl)methyl]phenyl}propanamide] | 111.111
32 | N#CC(=CN1CCN(c2ccccc2)CC1)C(=O)Nc1ccc(F)cc1 [8-C20, 2-cyano-N-(4-fluorophenyl)-3-(4-phenylpiperazin-1-yl)prop-2-enamide] | 86.639
33 | C=CC(=O)N(C)C1CCN(c2cnccn2)CC1 [1-B12, N-methyl-N-[1-(pyrazin-2-yl)piperidin-4-yl]prop-2-enamide] | 112.176
34 | N#CC(=Cc1c2ccccc2c(Cl)c2ccccc12)C(N)=O [8-N12, 3-(10-chloroanthracen-9-yl)-2-cyanoprop-2-enamide] | 127.137
35 | CC(c1cnn(C)c1)N(C)C(=O)CCl (stereo not shown) [5-M04, 2-chloro-N-methyl-N-[1-(1-methyl-1H-pyrazol-4-yl)ethyl]acetamide] | 96.1749
36 | CC(Cl)C(=O)N1CCC(c2nccn2C)C1 (stereo not shown) [6-F15, 2-chloro-1-[3-(1-methyl-1H-imidazol-2-yl)pyrrolidin-1-yl]propan-1-one] | 88.0976
37 | O=C(CCl)Nc1cccc(S(=O)(=O)N=C2CCCCCN2)c1 [4-D08, N-{3-[(azepan-2-ylidene)sulfamoyl]phenyl}-2-chloroacetamide] | 80.4192
38 | CC(Cl)C(=O)N(C)C1CCN(C(=O)c2ccccc2)CC1 (stereo not shown) [6-B18, N-(1-benzoylpiperidin-4-yl)-2-chloro-N-methylpropanamide] | 99.0244
39 | CNC(=O)C(C#N)=Cc1ccc(F)cc1 [9-B14, 2-cyano-3-(4-fluorophenyl)-N-methylprop-2-enamide] | 86.2921
40 | Cc1cc(NC(=O)CN(C)C(=O)C(C)Cl)no1 (stereo not shown) [7-M19, 2-chloro-N-methyl-N-{[(5-methyl-1,2-oxazol-3-yl)carbamoyl]methyl}propanamide] | 91.6797
41 | Cn1c(-c2ccccc2)c(C(=O)CCl)c2ccccc21 [10-N04, 2-chloro-1-(1-methyl-2-phenyl-1H-indol-3-yl)ethan-1-one] | 49.0625
42 | N#Cc1ccc(OC2CN(C(=O)CCl)C2)cc1 [5-K07, 4-{[1-(2-chloroacetyl)azetidin-3-yl]oxy}benzonitrile] | 119.126
43 | CC(=O)NCc1ccc(C(=O)C(C)Cl)s1 (stereo not shown) [10-M04, N-{[5-(2-chloropropanoyl)thiophen-2-yl]methyl}acetamide] | 110
44 | CC(Cl)C(=O)NC1CCN(S(=O)(=O)c2cnn(C)c2)CC1 (stereo not shown) [7-O05, 2-chloro-N-{1-[(1-methyl-1H-pyrazol-4-yl)sulfonyl]piperidin-4-yl}propanamide] | 114.286
45 | COc1cc(C=C(C#N)C(=O)Nc2nccs2)cc(OC)c1O [8-M19, 2-cyano-3-(4-hydroxy-3,5-dimethoxyphenyl)-N-(1,3-thiazol-2-yl)prop-2-enamide] | 80
46 | C=CC(=O)NCc1ccnc(-n2cncn2)c1 [3-B18, N-{[2-(1H-1,2,4-triazol-1-yl)pyridin-4-yl]methyl}prop-2-enamide] | 139.66
